A collection of fitness landscapes (doi:10.1038/s41467-024-54723-y)
In all, about 18,000 sequences were measured (“TetR repression strength (sort-seq, GFP reporter)”: median about 0.23, highest 2% from about 0.68 on). Some of the results follow.

The sequences below were run against TetR (class B, Tn10) (UniProt P04483) (assay: TetR repression strength (sort-seq, GFP reporter) (relative to tetO2 = 1); higher = stronger repression). Details: E. coli.
Method in brief: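 Repression strength was calculated by subtracting the read-weighted mean bin from the top bin index plus one and dividing by the unaltered operator's value. The plasmid library was low-copy in E. coli SIG10-MAX, with eight randomized operator positions between a constitutive promoter and sfGFP and constitutive TetR. Cultures grew 5 h at 37 °C in LB containing 50 µg/mL chloramphenicol before 10^6 cells were sorted by FACS into 13 fluorescence bins, each sequenced on Illumina. Three independent transformations were averaged for members having ≥30 reads in all replicates and a CV ≤0.5.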

Chain of UniProt P04483 (P04483 whole entry): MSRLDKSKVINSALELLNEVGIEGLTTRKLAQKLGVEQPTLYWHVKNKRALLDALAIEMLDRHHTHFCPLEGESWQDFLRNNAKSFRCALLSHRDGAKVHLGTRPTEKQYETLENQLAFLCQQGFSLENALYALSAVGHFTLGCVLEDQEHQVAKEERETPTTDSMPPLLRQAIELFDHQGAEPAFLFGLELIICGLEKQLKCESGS

| Sequence | TetR repression strength |
| --- | --- |
| TCCCGAGGAGTCATCGAGA | 0.629 |
| TCCCAAAGAGTAGTTGAGA | 0.104 |
| TCCCCGATAGTGGTGGAGA | 0.191 |
| TCCCAACAAGTGGAGGAGA | 0.282 |
| TCCCGCTCAGTATAAGAGA | 0.383 |
| TCCCTTAGAGTGCCGGAGA | 0.27 |
| TCCCAGTAAGTTGGAGAGA | 0.195 |
| TCCCCGTCAGTTTGTGAGA | 0.157 |
| TCCCATTGAGTAACCGAGA | 0.308 |
| TCCCAAATAGTCTACGAGA | 0.298 |
| TCCCGTTTAGTAAGGGAGA | 0.599 |
| TCCCAGAAAGTAGCTGAGA | 0.0993 |
| TCCCAATGAGTCTCAGAGA | 0.218 |
| TCCCTGACAGTCTGAGAGA | 0.246 |
| TCCCTGGTAGTGTGGGAGA | 0.21 |
| TCCCGGCCAGTTGTGGAGA | 0.374 |
| TCCCGGATAGTCAATGAGA | 0.215 |
| TCCCAACGAGTGCCGGAGA | 0.333 |
| TCCCTGCCAGTTGAAGAGA | 0.27 |
| TCCCCGAAAGTACAGGAGA | 0.259 |
| TCCCGACTAGTAAAGGAGA | 0.232 |
| TCCCCGTGAGTGGATGAGA | 0.137 |
| TCCCCTCCAGTGTTGGAGA | 0.415 |
| TCCCCTTAAGTTAGGGAGA | 0.17 |
| TCCCAGGAAGTATGGGAGA | 0.135 |
| TCCCCTGTAGTAGCAGAGA | 0.214 |

| Sequence | TetR repression strength |
| --- | --- |
| TCCCGGCGAGTAGGTGAGA | 0.231 |
| TCCCAATTAGTTTGAGAGA | 0.313 |
| TCCCGTGGAGTTGACGAGA | 0.0573 |
| TCCCTTCCAGTTCGGGAGA | 0.225 |
| TCCCATGTAGTGATGGAGA | 0.184 |
| TCCCCGCTAGTCGGGGAGA | 0.0641 |
| TCCCTACGAGTTAATGAGA | 0.253 |
| TCCCTCATAGTTTCCGAGA | 0.364 |
| TCCCAGTTAGTACGCGAGA | 0.268 |
| TCCCCCAAAGTGCCAGAGA | 0.202 |
| TCCCCTTCAGTGTCGGAGA | 0.169 |
| TCCCGTTTAGTGAGGGAGA | 0.175 |
| TCCCGCATAGTTGTTGAGA | 0.213 |
| TCCCTCTCAGTGAGTGAGA | 0.625 |
| TCCCTGGTAGTGGACGAGA | 0.0527 |
| TCCCTGCAAGTGATGGAGA | 0.388 |
| TCCCGGGAAGTGAGCGAGA | 0.245 |
| TCCCTGTAAGTTCAGGAGA | 0.247 |
| TCCCAACAAGTAGATGAGA | 0.207 |
| TCCCCATCAGTCAATGAGA | 0.361 |
| TCCCGCGCAGTGAGCGAGA | 0.184 |
| TCCCAGGTAGTAGGGGAGA | 0.244 |
| TCCCGCGCAGTTCGCGAGA | 0.156 |
| TCCCGGGGAGTCCTCGAGA | 0.242 |
| TCCCTTGGAGTGTGCGAGA | 0.286 |
| TCCCGGGAAGTGTGTGAGA | 0.177 |

| Sequence | TetR repression strength |
| --- | --- |
| TCCCTGCGAGTGAGGGAGA | 0.194 |
| TCCCCCGAAGTCCGAGAGA | 0.0297 |
| TCCCGTTGAGTACCGGAGA | 0.396 |
| TCCCTTATAGTGTGTGAGA | 0.207 |
| TCCCACCTAGTGCGCGAGA | 0.258 |
| TCCCTACGAGTAGGGGAGA | 0.172 |
| TCCCAGGTAGTACTTGAGA | 0.0352 |
| TCCCGGGCAGTTCTGGAGA | 0.191 |
| TCCCTGGAAGTGGGCGAGA | 0.338 |
| TCCCGATAAGTCCGGGAGA | 0.165 |
| TCCCTATAAGTAGAGGAGA | 0.235 |
| TCCCTCGCAGTGCAGGAGA | 0 |
| TCCCATCTAGTGGACGAGA | 0.263 |
| TCCCAGAGAGTAGGGGAGA | 0.281 |
| TCCCCGTTAGTTTTAGAGA | 0.25 |
| TCCCTTCCAGTTCACGAGA | 0.325 |
| TCCCGTCAAGTTTGAGAGA | 0.0263 |
| TCCCAATAAGTAGAAGAGA | 0.327 |
| TCCCTGGGAGTCGGAGAGA | 0.276 |
| TCCCGACAAGTCAGGGAGA | 0.225 |
| TCCCGAACAGTTTAGGAGA | 0.409 |
| TCCCGTCAAGTAGGCGAGA | 0.181 |
| TCCCGAGAAGTTCCCGAGA | 0.128 |
| TCCCGATAAGTCGGTGAGA | 0.45 |
| TCCCAATGAGTTGTTGAGA | 0.194 |
| TCCCGGGAAGTGGCCGAGA | 0.222 |

| Sequence | TetR repression strength |
| --- | --- |
| TCCCCAGAAGTAAACGAGA | 0.323 |
| TCCCAAAAAGTGCGGGAGA | 0 |
| TCCCAATCAGTCGTGGAGA | 0.338 |
| TCCCGGGGAGTGAATGAGA | 0.141 |
| TCCCGAGGAGTAAACGAGA | 0.276 |
| TCCCATGAAGTGTGAGAGA | 0.225 |
| TCCCGGGAAGTTACGGAGA | 0.707 |
| TCCCCGCCAGTTTTTGAGA | 0.346 |
| TCCCGTATAGTCGTTGAGA | 0.155 |
| TCCCTCGAAGTAGATGAGA | 0.104 |
| TCCCTTTCAGTGACCGAGA | 0.946 |
| TCCCGTCGAGTAAATGAGA | 0.176 |
| TCCCCTAGAGTAGCGGAGA | 0.197 |
| TCCCACATAGTGGGAGAGA | 0.144 |
| TCCCAGGGAGTAAGCGAGA | 0.0404 |
| TCCCCGCAAGTGGCGGAGA | 0.388 |
| TCCCCTCGAGTTTTCGAGA | 0.217 |
| TCCCGGAAAGTCTCGGAGA | 0.107 |
| TCCCTGTTAGTTTGAGAGA | 0.856 |
| TCCCACGTAGTGTGGGAGA | 0.198 |
| TCCCCTCAAGTGTGGGAGA | 0.214 |
| TCCCTGAAAGTCAGCGAGA | 0.18 |
| TCCCTATTAGTAGCCGAGA | 0.279 |
| TCCCAAGTAGTGTTCGAGA | 0.283 |
